The full ranking holds about 33,000 sequences; the median of “E-score (-0.5 to 0.5)” is about -0.036, and the highest 2% start at about 0.37. The list shows a part of the results.
Target: T1, Yer064c (UniProt P40041)
T1 sequence: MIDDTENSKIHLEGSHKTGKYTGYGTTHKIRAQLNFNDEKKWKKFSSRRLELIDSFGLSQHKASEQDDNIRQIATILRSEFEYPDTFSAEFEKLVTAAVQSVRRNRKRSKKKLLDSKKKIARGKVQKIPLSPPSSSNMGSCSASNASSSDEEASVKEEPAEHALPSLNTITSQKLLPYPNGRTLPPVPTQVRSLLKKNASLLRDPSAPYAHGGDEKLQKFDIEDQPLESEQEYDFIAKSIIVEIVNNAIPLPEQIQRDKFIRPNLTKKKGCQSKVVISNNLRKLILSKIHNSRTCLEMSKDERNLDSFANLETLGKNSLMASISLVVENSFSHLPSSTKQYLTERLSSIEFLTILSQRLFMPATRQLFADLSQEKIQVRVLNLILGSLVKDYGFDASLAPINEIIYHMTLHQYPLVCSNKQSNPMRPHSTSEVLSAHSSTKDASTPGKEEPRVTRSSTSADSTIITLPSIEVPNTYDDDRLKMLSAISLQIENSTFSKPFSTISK
Assay: PBM E-score (8-mer binding enrichment) (E-score (-0.5 to 0.5)); higher = stronger / more preferred TF binding; most listed sequences are background and not binding sites
Conditions: protein concentration: 200 nM; construct: GST-full length
How it was run: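 E-scores (a modified Wilcoxon-Mann-Whitney statistic) were assigned by the Universal PBM Analysis Suite to every ungapped eight-base word pooled with its reverse complement. The input came from universal all-10-mer Agilent arrays made double-stranded by primer extension and probed with GST-tagged yeast transcription factors at about 100-200 nM. Fluorescent anti-GST detected bound protein, and masliner normalised the scans.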

Row | Sequence | PBM E-score
1 | CGGCGCTC | -0.158
2 | GACTCATA | 0.477
3 | AGAAATCG | -0.117
4 | AGTCCCCG | 0.106
5 | AATTGATC | -0.046
6 | AGTGAGAT | -0.00055
7 | CATAAGGG | -0.267
8 | CCGCTGGC | -0.328
9 | GAAACACC | 0.0146
10 | GCCCACTA | -0.178
11 | AGCCTATA | -0.27
12 | AGGGTCGG | -0.191
13 | CGGGTATA | 0.0321
14 | AGAGCACT | -0.0479
15 | ATGCGTAA | -0.126
16 | TATACCCA | 0.0658
17 | CCCTTGCG | -0.21
18 | AGTGTATC | 0.106
19 | CGCAAGTC | 0.0971
20 | AGAGGCGG | -0.16
21 | CTACCCGA | 0.0299
22 | ATGACCGA | -0.0163
23 | ATTTTCTA | 0.0886
24 | GGTACCAA | -0.271
25 | AAAAGTTC | 0.0665

Row | Sequence | PBM E-score
26 | CGGGCACC | -0.183
27 | AAACTCTG | 0.0203
28 | CCCTAGGC | -0.191
29 | CGTACTAG | 0.0604
30 | GGACCTTA | -0.0995
31 | TAGTGAAA | -0.00449
32 | CACTGTCC | -0.0314
33 | GTACTTTA | 0.0454
34 | CCCAGCCG | -0.105
35 | CATTTGAA | 0.126
36 | CTCTCCGC | -0.0102
37 | AACTGATA | 0.119
38 | CTGCAACC | -0.0964
39 | CGTGCTGC | -0.205
40 | AATAGATG | 0.104
41 | GTTAGTTA | 0.165
42 | ACACTCGA | 0.0239
43 | GCCGAGCC | -0.128
44 | AGGTAGAA | -0.197
45 | AAAAGGGC | -0.0803
46 | CGAGTTGA | 0.143
47 | GCGCATCA | 0.0767
48 | GCACGGAA | -0.0673
49 | GGGACTAA | 0.323
50 | AAAGGTGC | -0.21

Row | Sequence | PBM E-score
51 | AGCTGCTC | -0.138
52 | ATCGTACC | -0.0803
53 | AAGTCCAA | 0.0178
54 | CAGCTTAC | 0.0501
55 | GGTAGGCA | -0.123
56 | CACGCAAA | -0.155
57 | AATTTCCA | 0.011
58 | TACAGGGA | 0.0442
59 | AAGCGACC | -0.161
60 | CGTCGGAC | -0.065
61 | AGAACTGG | -0.0701
62 | GGGGGCTA | -0.277
63 | AACGACCA | 0.0633
64 | AATGGCAT | 0.0278
65 | AATACTGA | -0.0813
66 | ATGCTTCA | -0.153
67 | GGAGGACA | -0.163
68 | GGACCAGA | -0.189
69 | ACATACGG | -0.077
70 | GGTCTAAA | 0.00226
71 | CTCCACCA | -0.0811
72 | TAAGACCA | 0.112
73 | CGAGCTGC | -0.221
74 | ACTTTCTA | -0.00055
75 | GAAACAAC | -0.16

Row | Sequence | PBM E-score
76 | AATGAGCG | -0.252
77 | CGATATCC | -0.0948
78 | ACGGCGTC | -0.3
79 | CGTATAAC | 0.0482
80 | GCGTCCAC | -0.189
81 | AATTGGTG | -0.0299
82 | ATACTGCC | -0.16
83 | GCTTAAAA | -0.0109
84 | CATTTCCA | 0.116
85 | CCACCTTA | -0.125
86 | CAGTGTCC | -0.253
87 | GTCAGGAA | 0.167
88 | GTAAAATA | 0.0278
89 | ACGCTGAT | 0.223
90 | AACCGGCT | -0.258
91 | ATAGCTTG | 0.0471
92 | CTCGCCCC | -0.281
93 | ATAATAAG | 0.00074
94 | TAGTAAGA | 0.122
95 | AGGCTAAC | 0.0621
96 | CCTCACTC | -0.077
97 | CGGCGGTC | -0.249
98 | CAACACCC | 0.0592
99 | GTGTTGTA | 0.0759
100 | CTCCAGAA | -0.118

Row | Sequence | PBM E-score
101 | ACATCTAT | 0.0442
102 | CTCGGGGA | -0.0158
103 | AAGACATA | -0.0777
104 | AACAAGTC | 0.226
105 | AGCACCCC | -0.32
106 | GGACATAA | -0.124
107 | GTGAGTTA | 0.263
108 | AGTGATGA | 0.261
109 | CGCGGGAA | -0.0482
110 | ACCCAGGC | 0.0836
111 | CCGCCGAA | 0.0178
112 | CAACTGAA | 0.0525
113 | ATGGGGCA | -0.27
114 | GGAGATCA | -0.0123
115 | AGTATTAA | 0.164
116 | CTCGCAAG | 0.00665
117 | CACGGGAC | 0.0352
118 | GCCCAAGC | -0.263
119 | AATGCGAC | 0.068
120 | GGTCGCCA | -0.102
121 | GCTTGGAC | -0.0998
122 | AGTAGCGC | -0.0178
123 | CTAAATTA | 0.278
124 | GCAGCCGC | -0.19
125 | AAAACTTG | -0.0825

Row | Sequence | PBM E-score
126 | CGGGCCAC | -0.31
127 | CCATCCTA | 0.0627
128 | ATTAACCC | 0.119
129 | ACTAGTGA | 0.105
130 | TAGAATCA | 0.362
131 | CTCCCTTA | -0.0979
132 | CCCATGTC | 0.00167
133 | AAGGTGCT | -0.24
134 | CCCAATGA | 0.118
135 | TCGAAAGA | 0.167
136 | GACTAGGC | 0.297
137 | CTAAGCAC | 0.0802
138 | GGTATGGA | -0.037
139 | AACAACCA | 0.13
140 | CTCCATCC | -0.118
141 | CATCACGG | -0.11
142 | ACGCGTAG | 0.0591
143 | GGATCTAC | -0.0229
144 | ATACAAGA | 0.0961
145 | CGATGTAA | -0.144
146 | AACTGACC | -0.163
147 | CACGAGAA | -0.2
148 | CTCGTGAA | 0.159
149 | CCATCGGA | -0.00521
150 | GACCTAGC | -0.158

Row | Sequence | PBM E-score
151 | GCGGTTAA | 0.051
152 | GTGAACGA | -0.00316
153 | GCTTTTAC | -0.015
154 | CCGGCACA | -0.0422
155 | AGAGGCCG | -0.219
156 | ATATAAAA | 0.166
157 | ACGGTTTA | -0.133
158 | ACTTATCT | 0.169
159 | ATTGATGC | -0.0401
160 | CGATCGAG | 0.026
161 | GCATAACA | -0.121
162 | GCATGGAC | -0.091
163 | CTGAATCA | 0.455
164 | CAGACCGG | -0.211
165 | CGAGACAC | 0.13
166 | AGGCCAAC | -0.0789
167 | GTTGTTTA | 0.0972
168 | ATCTTGGA | 0.118
169 | ACTCTAGA | 0.281
170 | CCCTAATC | 0.0125
171 | CATGCCCA | -0.249
172 | ACGAAAGG | -0.126

Reference: the supplement of paper PMC3334620
